# Values joined by “and” are separate entries in the source; they are usually repeats but may differ in a detail not shown here. Identical values can stand only once. ± gives the standard deviation of the averaged measurements. Over roughly 2,900 compounds, “IRF Lucia reporter activity, fold change vs agonist alone” has its median near 0.9; the highest 2% begin near 2.8. Some of the results follow.
# Columns and labels:
# [1] = tested on: RAW-Dual; experiment: IRF Lucia reporter activity, fold change vs agonist alone; cytotoxicity flag (confluency mask): not cytotoxic; higher = enhanced IRF activity
# Summary of the method: (§1)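 Cytotoxic wells were those whose IncuCyte confluency was below 70% of agonist controls in both mask sets. The cells were RAW-Dual macrophages at 50,000 cells/well in DMEM on 384-well plates, dosed with 50 nL of library stock by pin tool, stimulated with a PRR agonist 1 h later, and kept at 37 °C, 5% CO2 for 20 hours. IRF and NF-κB reporter activity, as fold change over agonist-alone wells, came from supernatant read by QuantiLuc luminescence and QuantiBlue absorbance, respectively.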
# [2] = tested on: RAW-Dual; experiment: IRF Lucia reporter activity, fold change vs agonist alone; higher = enhanced IRF activity; conditions: agonist: MPLA (TLR4) […]
# Summary of the method: as §1
# [3] = tested on: RAW-Dual; experiment: IRF Lucia reporter activity, fold change vs agonist alone; cytotoxicity flag (confluency mask): cytotoxic (confluency <70% of control); higher = enhanced IRF activity
# Summary of the method: as §1
# [4] = agonist: 3'3'-cGAMP (STING) 10 ug/mL
# [5] = library stock concentration (final ~1000-fold dilution): 10 mM, cytotoxicity flag (confluency mask): not cytotoxic
structure (smiles),measurement,setting,value
Nc1ccc(O)c(C(=O)O)c1 (library stock concentration (final ~1000-fold dilution): 10 mM),IRF Lucia reporter activity,[1]; [4],0.974 and 1.02
same,IRF Lucia reporter activity,[1]; agonist: LPS (TLR4) 0.1 ug/mL,0.961 and 1.01
Nc1ccc(O)c(C(=O)O)c1,IRF Lucia reporter activity,[2]; [5],1.07 ± 0.12
CNC(=O)c1ccccc1Oc1nc(Nc2cc(OC)c(OC)c(OC)c2)ncc1Br (library stock concentration (final ~1000-fold dilution): 10 mM),IRF Lucia reporter activity,[1]; [4],0.23
same,IRF Lucia reporter activity,[1]; agonist: LPS (TLR4) 0.1 ug/mL,0.394
CS(=O)(=O)c1cccc(CC(NC(=O)c2c(Cl)cc3c(c2Cl)CCN(C(=O)c2ccc4ccoc4c2)C3)C(=O)O)c1 (stereo unspecified) (library stock concentration (final ~1000-fold dilution): 10 mM),IRF Lucia reporter activity,[1]; [4],1.14
same,IRF Lucia reporter activity,[1]; agonist: LPS (TLR4) 0.1 ug/mL,1.2
CS(=O)(=O)c1cccc(CC(NC(=O)c2c(Cl)cc3c(c2Cl)CCN(C(=O)c2ccc4ccoc4c2)C3)C(=O)O)c1 (stereo unspecified),IRF Lucia reporter activity,[2]; [5],1.15
O=c1ncn2nc(Sc3ccc(F)cc3F)ccc2c1-c1c(Cl)cccc1Cl (library stock concentration (final ~1000-fold dilution): 10 mM),IRF Lucia reporter activity,[1]; [4],0.886
same,IRF Lucia reporter activity,[1]; agonist: LPS (TLR4) 0.1 ug/mL,0.829
O=c1ncn2nc(Sc3ccc(F)cc3F)ccc2c1-c1c(Cl)cccc1Cl,IRF Lucia reporter activity,[2]; [5],0.649
O=c1[nH]cc(F)c(=O)[nH]1,IRF Lucia reporter activity,"[2]; library stock concentration (final ~1000-fold dilution): 10 mM, cytotoxicity flag (confluency mask): cytotoxic (confluency <70% of control)",1.17
O=c1[nH]cc(F)c(=O)[nH]1 (library stock concentration (final ~1000-fold dilution): 10 mM),IRF Lucia reporter activity,[3]; [4],1.24
same,IRF Lucia reporter activity,[3]; agonist: LPS (TLR4) 0.1 ug/mL,1.48
Cl.Nc1c(Br)cc(Br)cc1CNC1CCC(O)CC1 (stereo unspecified) (library stock concentration (final ~1000-fold dilution): 2 mM),IRF Lucia reporter activity,[1]; [4],0.844
same,IRF Lucia reporter activity,[1]; agonist: LPS (TLR4) 0.1 ug/mL,1.01
Cl.Nc1c(Br)cc(Br)cc1CNC1CCC(O)CC1 (stereo unspecified),IRF Lucia reporter activity,"[2]; library stock concentration (final ~1000-fold dilution): 2 mM, cytotoxicity flag (confluency mask): not cytotoxic",1.14
CC(=O)Oc1cc(C(F)(F)F)ccc1C(=O)O (library stock concentration (final ~1000-fold dilution): 10 mM),IRF Lucia reporter activity,[1]; [4],1.03
same,IRF Lucia reporter activity,[1]; agonist: LPS (TLR4) 0.1 ug/mL,0.337
CC(=O)Oc1cc(C(F)(F)F)ccc1C(=O)O,IRF Lucia reporter activity,[2]; [5],1.04
O=c1c(O[C@@H]2OC[C@@H](O)[C@H](O)[C@H]2O)c(-c2ccc(O)c(O)c2)oc2cc(O)cc(O)c12 (library stock concentration (final ~1000-fold dilution): 10 mM),IRF Lucia reporter activity,[3]; [4],0.0133
same,IRF Lucia reporter activity,[3]; agonist: LPS (TLR4) 0.1 ug/mL,0.0292
CN1CCOC(c2ccccc2)c2ccccc2C1.Cl (stereo unspecified) (library stock concentration (final ~1000-fold dilution): 10 mM water),IRF Lucia reporter activity,[1]; [4],1.13
same,IRF Lucia reporter activity,[1]; agonist: LPS (TLR4) 0.1 ug/mL,0.906
CN1CCOC(c2ccccc2)c2ccccc2C1.Cl (stereo unspecified),IRF Lucia reporter activity,"[2]; library stock concentration (final ~1000-fold dilution): 10 mM water, cytotoxicity flag (confluency mask): not cytotoxic",1.23
N#Cc1cc(-c2ccnc(Nc3ccc(N4CCOCC4)cc3)n2)ccc1OC1CCOCC1 (library stock concentration (final ~1000-fold dilution): 10 mM),IRF Lucia reporter activity,[1]; [4],0.0161
same,IRF Lucia reporter activity,[1]; agonist: LPS (TLR4) 0.1 ug/mL,0.0172
C[C@@H]1O[C@@H](Oc2c(-c3ccc(O)c(O)c3)oc3cc(O)cc(O)c3c2=O)[C@H](O)[C@H](O)[C@H]1O (library stock concentration (final ~1000-fold dilution): 10 mM),IRF Lucia reporter activity,[1]; [4],0.524
same,IRF Lucia reporter activity,[1]; agonist: LPS (TLR4) 0.1 ug/mL,0.524
CN(C)CCCNC(=O)c1ccc(-c2cc(O)c3ncccc3c2)cc1 (library stock concentration (final ~1000-fold dilution): 10 mM),IRF Lucia reporter activity,[1]; [4],0.336
same,IRF Lucia reporter activity,[1]; agonist: LPS (TLR4) 0.1 ug/mL,0.965
CN(C)CCCNC(=O)c1ccc(-c2cc(O)c3ncccc3c2)cc1,IRF Lucia reporter activity,[2]; [5],1.05
Cc1nn(C)c2nc(NNC(=O)Nc3cc(Cl)nc(Cl)c3)cc(C(C)C)c12 (library stock concentration (final ~1000-fold dilution): 10 mM),IRF Lucia reporter activity,[1]; [4],0.557
same,IRF Lucia reporter activity,[1]; agonist: LPS (TLR4) 0.1 ug/mL,1.01
Cc1nn(C)c2nc(NNC(=O)Nc3cc(Cl)nc(Cl)c3)cc(C(C)C)c12,IRF Lucia reporter activity,[2]; [5],1.13
O=C(O)Cc1ccccc1Nc1c(Cl)cccc1Cl (library stock concentration (final ~1000-fold dilution): 10 mM),IRF Lucia reporter activity,[1]; [4],0.986 and 1.02
same,IRF Lucia reporter activity,[1]; agonist: LPS (TLR4) 0.1 ug/mL,0.611 and 0.994
Cc1c(NC(=O)c2ccc(C(C)(C)C)cc2)cccc1-c1cn(C)c(=O)c(Nc2ccc(C(=O)N3CCOCC3)cc2)n1,IRF Lucia reporter activity,[2]; [5],0.98
Cc1c(NC(=O)c2ccc(C(C)(C)C)cc2)cccc1-c1cn(C)c(=O)c(Nc2ccc(C(=O)N3CCOCC3)cc2)n1 (library stock concentration (final ~1000-fold dilution): 10 mM),IRF Lucia reporter activity,[1]; [4],0.982
same,IRF Lucia reporter activity,[1]; agonist: LPS (TLR4) 0.1 ug/mL,0.964
COc1cc(F)c(F)c(Nc2ccc(I)cc2F)c1NS(=O)(=O)C1(CC(O)CO)CC1 (stereo unspecified),IRF Lucia reporter activity,[2]; [5],0.699
COc1cc(F)c(F)c(Nc2ccc(I)cc2F)c1NS(=O)(=O)C1(CC(O)CO)CC1 (stereo unspecified) (library stock concentration (final ~1000-fold dilution): 10 mM),IRF Lucia reporter activity,[1]; [4],0.508
same,IRF Lucia reporter activity,[1]; agonist: LPS (TLR4) 0.1 ug/mL,0.349
Br.Br.NCCCCCNCC12CC3CC(CC(C3)C1)C2 (library stock concentration (final ~1000-fold dilution): 10 mM),IRF Lucia reporter activity,[1]; [4],0.793
same,IRF Lucia reporter activity,[1]; agonist: LPS (TLR4) 0.1 ug/mL,0.958
Br.Br.NCCCCCNCC12CC3CC(CC(C3)C1)C2,IRF Lucia reporter activity,[2]; [5],1.03

# From the supplement of paper PMC10037445
